According to PubChem BioAssay AID1745845 (National Center for Advancing Translational Sciences (NCATS), 2022):
In all, about 360,000 compounds went through this assay and about 2,600 (0.72%) were called active. The shares of active, inactive and inconclusive entries below differ from those in the screen. Calls follow the shape of the dose curve; as a rule, active = well fitted inhibition curve with a large enough effect; inconclusive = small, poorly fitted or top-dose-only effect; inactive = no such curve, though single readings can be large or run the other way. Where the call is inconclusive, the potency comes from a doubtful curve fit.

Assay: Primary qHTS for Inhibitors of ATXN expression; also: nearly all actives have a fitted effect of over 55% in size
Settings: HEK-293 ATXN2-luciferase reporter, luminescence, 24 h; activity change, negative = inhibition: at 57 µM (top of the series)
How it was run: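 ATXN2-luciferase reporter cells (luciferase flanked by upstream and downstream ATXN2 gene portions) were treated 24 h at 37 °C with compounds at up to 57 uM. SteadyGlo luminescence gave expression; GF-AFC fluorescence gave viability.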
% is scaled to controls: 0 for no effect and ±100 for the full control effect; potency is read from the fitted curve at half-maximal effect; tags tell the direction and shape of the fitted curve.

SMILES | Potency | activity change, negative = inhibition
O=C(C1=C[C@H](c2ccc(C(F)(F)F)cc2)C[C@H](OCc2ccc(CO)cc2)O1)N1CCN(Cc2ccc3c(c2)OCO3)CC1 | inconclusive: 39.8 µM [inhibitor, single point] | 
N#C/C(=N\Nc1ccc(Cl)cc1)C(N)=S | inconclusive: 31.6 µM [inhibitor, single point] | 
COc1ccc(C2NCCc3c2[nH]c2ccccc32)cc1COc1ccc(F)cc1 (stereo unspecified) | active: 28.2 µM | 
COc1cc(OC)cc(-n2c(=O)[nH]c3cc(C(=O)NCCc4ccc(C)cc4)ccc3c2=O)c1 | inconclusive: 7.08 µM [inhibitor, single point] | 
Cc1cccc(-c2cc3nc4c(c(NCc5ccco5)n3n2)CCCC4)c1 |  | inactive: -39%
c1coc(-c2ccnc(-c3ccncc3)n2)c1 |  | inactive: 5.54%
COc1ccccc1CNC(=O)C(CCSC)NC(=O)C1CCC(C)CC1 (stereo unspecified) |  | inactive: 3.58%
CC(C)(C)OC(=O)N1CCC(NC(=O)c2ncn(Cc3ccccc3)c2C(=O)NC2CCN(C(=O)OC(C)(C)C)CC2)CC1 | inconclusive: 39.8 µM [inhibitor, partial curve, poor fit] | 
CCOc1ccc(-c2nnc(Nc3ccc(OC)c(C(=O)N4CCCCC4)c3)c3ccccc23)cc1 | inconclusive: 39.8 µM [inhibitor, single point] | 
O=C1N(Cc2cccc(Cl)c2)C[C@@H]2C[C@@H](c3cccn3-c3ccccn3)N3CCC[C@@]123 |  | inactive: -22.8%
Cn1c2c(c(=O)[nH]c1=O)C(c1ccc(O)cc1)C1=C(N2)c2ccccc2C1=O (stereo unspecified) | inconclusive: 37.7 µM [inhibitor, single point] | 
COc1ccc(OCC(=O)Nc2ccc(N3CCN(C(=O)c4ccccc4)CC3)c(Cl)c2)cc1 | inconclusive: 10 µM [inhibitor, partial curve, poor fit] | 
O=S(=O)(c1ccccc1)N(CC(O)Cn1c2ccccc2c2ccccc21)c1ccccc1 (stereo unspecified) | inconclusive: 28.2 µM [inhibitor, single point] | 
CCc1nc2ccc(C(=O)Nc3cccc(OC)c3)cn2c1N(CCC(C)C)CCN(C)C | inconclusive: 28.2 µM [inhibitor, single point] | 
COc1ccc(-c2ccc(NC(=O)c3ccco3)cc2)nn1 | inconclusive: 1.12 µM [inhibitor, single point] | 
CCOC(=O)CN1C(=O)C(O)(CC(=O)c2ccc3c(c2)CCCC3)c2ccccc21 (stereo unspecified) | inconclusive: 0.141 µM [inhibitor, full curve, poor fit] | 
O=C(CSc1nnc(-c2ccc(O)cc2)n1Cc1ccccc1)NNC(=O)c1ccc(Br)cc1 |  | inactive: -9.36%
COc1ccc([N+](=O)[O-])cc1Nc1c2ccccc2nc2ccccc12 |  | inconclusive: -57.7% [inhibitor]
CCOC(=O)N1CCN(c2ncnc3c2[nH]c2ccc(OC)cc23)CC1 | inconclusive: 5.01 µM [inhibitor, full curve, poor fit] | 
CCCCN1CC(c2nc3ccccc3n2CCCCOc2c(C)cccc2C)CC1=O (stereo unspecified) | active: 22.4 µM | 
O=C(CCCC(=O)Nc1cccc(Br)c1)N/N=C/c1cc([N+](=O)[O-])ccc1O | inconclusive: 28.2 µM [inhibitor, partial curve, poor fit] | 

SMILES | Potency | activity change, negative = inhibition
O=C(/C=C/c1cccc(F)c1)NC1CCN(Cc2ccccc2)CC1 | inconclusive: 11.2 µM [inhibitor, partial curve, poor fit] | 
COc1cccc(Cn2c(=O)n(-c3cccc(Cl)c3C)c(=O)c3c4c(sc32)CN(C(C)=O)CC4)c1 | inconclusive: 28.2 µM [inhibitor, single point] | 
CCN(CC)c1ccc(C=C(c2nnnn2-c2ccccc2)c2nnnn2-c2ccccc2)cc1 |  | inactive: 2.64%
CC1CCC(C(C)C)C(OC(=O)C[n+]2cc(-c3ccc(Cl)cc3)n3c2CCCCC3)C1 (stereo unspecified) | inconclusive: 14.1 µM [inhibitor, partial curve] | 
CCCCCCCCN1C(=O)[C@H](CC(=O)NCc2ccccc2)C[C@@]2(C(=O)OCC)CCCC=C12 | inconclusive: 31.6 µM [inhibitor, single point] | 
CN1CC2(Cc3c1ccc1ccccc31)C(=O)OC(C)(C)OC2=O | inconclusive: 39.8 µM [inhibitor, single point] | 
CC(=O)c1cc2c(s1)-c1cc(F)ccc1OC2 | inconclusive: 2.12 µM [inhibitor, full curve, poor fit] | 
COc1ccc(NC2=NC(=S)N(c3ccc(C)cc3)C23CCCCC3)cc1 |  | inactive: -19.1%
CC(=O)N1CCN(c2ccc(NC(=O)c3ccco3)cc2Cl)CC1 |  | inactive: 16.6%
Cc1ccc(NC(=O)CN(C)S(=O)(=O)c2cccc3nsnc23)cc1 |  | inactive: 32.2%
CC(CC(=O)Nc1ccc2c(c1)c(=O)n(C)n2-c1ccccc1F)c1ccccc1 (stereo unspecified) |  | inactive: -4.96%
CN(CCOc1ccc(Cl)cc1)C(=O)c1cc(S(=O)(=O)N2CCOCC2)ccc1N1CCCC1 | inconclusive: 31.6 µM [inhibitor, single point] | 
Cc1cc(C(=O)NNc2ccc(Cl)cc2)no1 | inconclusive: 3.16 µM [inhibitor, partial curve, poor fit] | 
CN1Cc2sc(NC(=S)NC(=O)c3ccccc3)c(C#N)c2CC1(C)C | inconclusive: 0.562 µM [inhibitor, full curve, poor fit] | 
Cc1ccc(Cn2c(O)c(N=O)c3ccccc32)cc1 |  | inactive: 1.83%
COc1ccc(C(O)(C2CCCCC2)C(CN2CCCC2)c2ccccc2)cc1 (stereo unspecified) | inconclusive: 26.7 µM [inhibitor, partial curve, poor fit] | 
Fc1ccc(C(c2nnnn2Cc2cccs2)N2CCN(C3CCCC3)CC2)cc1 (stereo unspecified) | inconclusive: 0.224 µM [inhibitor, full curve, poor fit] | 
CC(C)CC(=O)NC(NC(=S)Nc1sc2c(c1C#N)CCCC2)C(Cl)(Cl)Cl (stereo unspecified) | inconclusive: 35.5 µM [inhibitor, single point] | 
COc1cc(/C=C2\SC(=O)N(c3ccc(Cl)cc3)C2=O)cc([N+](=O)[O-])c1O |  | inactive: -9.15%
O=C(CCl)N(CCc1ccccc1)CCc1ccccc1 | inconclusive: 15.8 µM [inhibitor, partial curve, poor fit] | 
